From the supplement of paper PMC4967469
Lines with a small IC50 respond at low doses; fits outside the tested doses are given as limits. AUC sums up the same curve from the lowest dose to the 256-fold higher top dose; values near 1 show little effect. For some of these results: Where the top dose is marked as inferred, it comes from the curve model; the source does not state it. For some of these results: Drugs with an entry number were screened twice under separate entries, and the two screens often disagree.

Experiments:
Assay in all cases: Viability of human cancer cell lines after 72 h of drug (GDSC screen)
SNX-2112 = compound: CC1(C)CC(=O)c2c(C(F)(F)F)nn(-c3ccc(C(N)=O)c(N[C@H]4CC[C@H](O)CC4)c3)c2C1 [SNX-2112]; conditions: top dose 2.56 µM
Description: (§1)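 Human cancer cell lines in 384-well plates, medium with 10% serum, drug for 72 h over a 256-fold dose range (nine 2-fold or five 4-fold steps up to the top dose). Adherent lines were fixed and stained with the nucleic acid dye Syto60, suspension lines read with resazurin; signal relative to control wells, capped at 0 and 100%. One two-parameter sigmoid per drug and line, fitted in a mixed model over all curves with the slope shared within a line.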

Vinblastine = compound: CC[C@]1(O)C[C@@H]2CN(CCc3c([nH]c4ccccc34)[C@@](C(=O)OC)(c3cc4c(cc3OC)N(C)[C@H]3[C@@](O)(C(=O)OC)[C@H](OC(C)=O)[C@]5(CC)C=CCN6CC[C@]43[C@@H]65)C2)C1 [Vinblastine]; conditions: top dose 0.1 µM; top dose inferred
Description: as §1

Afatinib = compound: CN(C)C/C=C/C(=O)Nc1cc2c(Nc3ccc(F)c(Cl)c3)ncnc2cc1O[C@H]1CCOC1 [Afatinib]
Description: as §1

PF-562271 = compound: CN(c1ncccc1CNc1nc(Nc2ccc3c(c2)CC(=O)N3)ncc1C(F)(F)F)S(C)(=O)=O [PF-562271]; conditions: top dose 2.56 µM; top dose inferred
Description: as §1

XMD13-2 = compound: O=C(NC1CC1)c1cccc(-c2ccc3c(NC(=O)C4CC4)n[nH]c3c2)c1 [XMD13-2]; conditions: top dose 10.24 µM; top dose inferred
Description: as §1

[1] = top dose 0.5 µM, screen: GDSC drug entry 1032
[2] = top dose 10 µM, screen: GDSC drug entry 1377, top dose inferred

Row | Cell Line | AUC (SNX-2112) | IC50 (SNX-2112) | AUC (Vinblastine) | IC50 (Vinblastine) | AUC (Afatinib; [1]) | IC50 (Afatinib; [1]) | AUC (Afatinib; [2]) | IC50 (Afatinib; [2]) | AUC (PF-562271) | IC50 (PF-562271) | AUC (XMD13-2) | IC50 (XMD13-2)
1 | SW1783 (glioma, adherent) | 0.546 | 211 nM | 0.85 | 64.5 nM | 0.991 | > 500 nM | 0.968 | > 10000 nM | 0.987 | > 2560 nM | 0.988 | > 10200 nM
2 | NCI-H2227 (small cell lung carcinoma, semi-adherent) | 0.584 | 280 nM | 0.828 | 72.8 nM | 0.986 | > 500 nM | 0.97 | > 10000 nM | 0.986 | > 2560 nM | 0.859 | > 10200 nM
3 | SUP-HD1 (Hodgkin lymphoma, suspension) | 0.324 | 52.9 nM | 0.507 | 6.51 nM | 0.979 | > 500 nM | 0.984 | > 10000 nM | 0.903 | > 2560 nM | 0.79 | 4310 nM
4 | EN (endometrium, adherent) | 0.796 | 1570 nM | 0.645 | 17.5 nM | 0.984 | > 500 nM | 0.981 | > 10000 nM | 0.966 | > 2560 nM | 0.869 | > 10200 nM
5 | TGBC11TKB (stomach, adherent) | 0.511 | 170 nM | 0.709 | 22.4 nM | 0.99 | > 500 nM | 0.976 | > 10000 nM | 0.983 | > 2560 nM | 0.983 | > 10200 nM
6 | COR-L95 (small cell lung carcinoma, adherent) | 0.619 | 360 nM | 0.919 | > 100 nM | 0.985 | > 500 nM | 0.985 | > 10000 nM | 0.987 | > 2560 nM | 0.941 | > 10200 nM
7 | SKN (uterus, adherent) | 0.641 | 428 nM | 0.454 | 4.56 nM | 0.961 | > 500 nM | 0.874 | > 10000 nM | 0.962 | > 2560 nM | 0.933 | > 10200 nM
8 | 5637 (bladder, adherent) | 0.63 | 351 nM | 0.254 | 1.34 nM | 0.901 | > 500 nM | 0.875 | 8270 nM | 0.87 | 2000 nM | 0.886 | 9430 nM
9 | JURL-MK1 (chronic myeloid leukaemia, suspension) | 0.283 | 39 nM | 0.441 | 4.32 nM | 0.97 | > 500 nM | 0.961 | > 10000 nM | 0.95 | > 2560 nM | 0.932 | > 10200 nM
10 | Mo-T (hairy cell leukaemia, suspension) | 0.257 | 31.7 nM | 0.362 | 2.58 nM | 0.987 | > 500 nM | 0.948 | > 10000 nM | 0.986 | > 2560 nM | 0.885 | > 10200 nM
11 | NCI-H526 (small cell lung carcinoma, suspension) | 0.765 | 899 nM | 0.546 | 8.28 nM | 0.973 | > 500 nM | 0.989 | > 10000 nM | 0.911 | > 2560 nM | 0.906 | > 10200 nM
12 | NTERA-2 cl.D1 (testis, adherent) | 0.797 | 1190 nM | 0.468 | 5.13 nM | 0.952 | > 500 nM | 0.896 | > 10000 nM | 0.807 | 1300 nM | 0.96 | > 10200 nM
13 | PE/CA-PJ15 (head and neck, adherent) | 0.824 | 1690 nM | 0.591 | 11.3 nM | 0.95 | > 500 nM | 0.756 | 3670 nM | 0.974 | > 2560 nM | 0.973 | > 10200 nM
14 | 639-V (bladder, adherent) | 0.494 | 154 nM | 0.449 | 4.65 nM | 0.962 | > 500 nM | 0.965 | > 10000 nM | 0.913 | > 2560 nM | 0.987 | > 10200 nM
15 | RCM-1 (large intestine, adherent) | 0.852 | > 2560 nM | 0.951 | > 100 nM | 0.902 | > 500 nM | 0.913 | > 10000 nM | 0.943 | > 2560 nM | 0.983 | > 10200 nM
16 | NOS-1 (osteosarcoma, adherent) | 0.514 | 176 nM | 0.777 | 49.9 nM | 0.941 | > 500 nM | – | – | 0.94 | > 2560 nM | 0.862 | > 10200 nM
17 | NCI-H69 (small cell lung carcinoma, suspension) | 0.981 | > 2560 nM | 0.685 | 21.9 nM | 0.984 | > 500 nM | 0.952 | > 10000 nM | 0.92 | > 2560 nM | 0.846 | 8780 nM
18 | CHSA0011 (chondrosarcoma, adherent) | 0.914 | > 2560 nM | 0.793 | 67.8 nM | 0.98 | > 500 nM | 0.913 | > 10000 nM | 0.908 | > 2560 nM | 0.961 | > 10200 nM
19 | SUIT-2 (pancreas, adherent) | 0.33 | 52.3 nM | 0.828 | 65.5 nM | 0.938 | > 500 nM | 0.958 | > 10000 nM | 0.919 | > 2560 nM | 0.952 | > 10200 nM
20 | D-542MG (glioma, adherent) | 0.804 | 1640 nM | 0.76 | 42.5 nM | 0.984 | > 500 nM | 0.98 | > 10000 nM | 0.976 | > 2560 nM | 0.972 | > 10200 nM
21 | OE33 (oesophagus, adherent) | 0.894 | > 2560 nM | 0.68 | 22 nM | 0.969 | > 500 nM | 0.891 | > 10000 nM | 0.892 | > 2560 nM | 0.951 | > 10200 nM
